The values that follow come from article PMC3510253 (PLoS Pathogens, 2012).

By UniProt entry, the sequences of proteins in these tests, tags left out.
UniProt Q61510: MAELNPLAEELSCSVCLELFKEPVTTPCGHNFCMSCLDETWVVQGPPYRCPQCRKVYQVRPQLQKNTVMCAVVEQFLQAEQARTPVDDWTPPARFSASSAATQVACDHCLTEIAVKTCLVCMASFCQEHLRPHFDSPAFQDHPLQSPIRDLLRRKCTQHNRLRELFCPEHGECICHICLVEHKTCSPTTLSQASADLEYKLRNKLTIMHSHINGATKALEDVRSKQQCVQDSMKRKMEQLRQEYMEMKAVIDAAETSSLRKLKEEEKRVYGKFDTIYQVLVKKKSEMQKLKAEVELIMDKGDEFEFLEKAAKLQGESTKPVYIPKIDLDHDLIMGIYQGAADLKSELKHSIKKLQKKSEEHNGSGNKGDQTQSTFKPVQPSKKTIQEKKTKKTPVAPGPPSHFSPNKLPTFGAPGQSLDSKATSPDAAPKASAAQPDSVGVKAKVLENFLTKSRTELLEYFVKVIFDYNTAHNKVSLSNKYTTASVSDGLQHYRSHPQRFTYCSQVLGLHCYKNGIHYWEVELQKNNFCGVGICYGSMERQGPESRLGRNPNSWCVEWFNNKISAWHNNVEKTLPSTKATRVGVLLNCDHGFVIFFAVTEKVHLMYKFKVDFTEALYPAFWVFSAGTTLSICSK
UniProt P03496: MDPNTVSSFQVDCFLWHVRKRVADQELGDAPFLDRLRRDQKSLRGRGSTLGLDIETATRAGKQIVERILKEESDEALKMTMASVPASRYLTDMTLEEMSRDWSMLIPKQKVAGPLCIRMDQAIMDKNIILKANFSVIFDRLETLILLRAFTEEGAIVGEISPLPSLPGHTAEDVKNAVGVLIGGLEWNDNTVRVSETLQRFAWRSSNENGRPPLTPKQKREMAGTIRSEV
UniProt Q14258: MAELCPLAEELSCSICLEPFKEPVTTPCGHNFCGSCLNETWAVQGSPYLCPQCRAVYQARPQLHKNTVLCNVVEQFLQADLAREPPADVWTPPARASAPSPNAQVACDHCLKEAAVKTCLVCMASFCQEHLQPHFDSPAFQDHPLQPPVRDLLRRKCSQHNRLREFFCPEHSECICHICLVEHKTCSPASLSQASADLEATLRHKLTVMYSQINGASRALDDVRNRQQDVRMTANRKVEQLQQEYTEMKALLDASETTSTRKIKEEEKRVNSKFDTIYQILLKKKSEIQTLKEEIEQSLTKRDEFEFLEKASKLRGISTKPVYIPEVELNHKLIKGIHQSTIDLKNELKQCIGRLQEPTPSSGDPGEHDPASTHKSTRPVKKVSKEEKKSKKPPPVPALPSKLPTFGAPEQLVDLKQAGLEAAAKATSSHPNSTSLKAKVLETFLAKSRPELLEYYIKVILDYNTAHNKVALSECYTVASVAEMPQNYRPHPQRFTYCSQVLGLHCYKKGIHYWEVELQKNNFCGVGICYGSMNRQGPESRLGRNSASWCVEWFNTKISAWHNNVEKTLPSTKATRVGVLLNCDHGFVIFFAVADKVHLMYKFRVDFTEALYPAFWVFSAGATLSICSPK

These are yes or no findings as the source states them, for the method shown. For some of these results: In cells and extracts the contact can be indirect. Some results given as binding are weak or reduced against the parent protein; the word gives no strength. For some of these results: Sequences can lack the tags named with a protein.

In experiment [1] the target is MBP-mouse TRIM25-Flag (mouse) (UniProt Q61510). The experiment can be described thus: pull-down; both purified.
Experiment [2] has as its target T1, HA-tagged human Riplet (human) (UniProt Q8IUD6).
T1 sequence: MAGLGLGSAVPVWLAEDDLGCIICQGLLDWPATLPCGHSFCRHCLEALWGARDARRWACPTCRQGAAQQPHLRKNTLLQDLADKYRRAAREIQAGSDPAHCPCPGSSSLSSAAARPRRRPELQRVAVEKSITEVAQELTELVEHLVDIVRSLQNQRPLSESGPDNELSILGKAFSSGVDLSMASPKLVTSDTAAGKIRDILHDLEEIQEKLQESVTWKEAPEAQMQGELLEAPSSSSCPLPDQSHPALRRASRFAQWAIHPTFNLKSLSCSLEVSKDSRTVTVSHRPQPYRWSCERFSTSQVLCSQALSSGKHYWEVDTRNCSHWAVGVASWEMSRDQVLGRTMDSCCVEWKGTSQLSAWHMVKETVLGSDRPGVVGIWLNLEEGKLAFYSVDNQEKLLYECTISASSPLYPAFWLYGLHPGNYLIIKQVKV
The experiment can be described thus: co-IP.

Experiment [3] has as its target NS1 protein of influenza A/Puerto Rico/8/34 (PR8), expressed from the virus in infected cells (influenza A virus A/Puerto Rico/8/34 (PR8)) (UniProt P03496). The experiment can be described thus: co-IP.

On to “Glutathione-S-transferase (GST)-NS1 fusion protein (PR8) (from UniProt P03496 1-230)”, for which, in experiment [1], the binding entry is recorded as “no binding”.

“NS1 protein of influenza A/Puerto Rico/8/34 (PR8), expressed from the virus in infected cells (from UniProt P03496 1-230)”: the binding result in experiment [2] was “no binding”.

For “endogenous human TRIM25 (from UniProt Q14258 1-630) (enzyme)”, the binding result in experiment [3] was “binds”.

Regarding “endogenous mouse TRIM25 (from UniProt Q61510 1-634) (enzyme)”, in experiment [3], the binding result is reported as “no binding”.
